The values below come from ChEMBL document CHEMBL4888484, “Replenishing the malaria drug discovery pipeline: Screening and hit evaluation of the MMV Hit Generation Library 1 (HGL1) against asexual blood stage Plasmodium falciparum ,using a nano luciferase reporter read-out” (2022).

Out of some 150,000 compounds screened, about 540 (0.36%) showed an effect of 50% or more. The list shows a part of the results. Where a SMILES comes first, the peptide text is derived from it. The star is where a group is joined. Cbz = O=C(OCc1ccccc1)*; OtBu = CC(C)(C)O*

This assay deals with Plasmodium falciparum. Briefly: Primary screen in NF54 nanoGlo assay, in single point, at 2uM, 72h; a lower Z score goes with more inhibition. Format: functional, Erythrocyte. To be noted: timepoint 72 hour.
For orientation: % Inhibition means the drop in the measured response relative to a control, in per cent. Turning to `CNC(=O)N1CCC[C@H](CC(F)(F)F)C1`, the “% Inhibition” value was -5% and the Z score was determined as 0.56.
On the same counts, the results for `Cc1cc(F)ccc1-n1ccc(NC(=O)NC(C)C(C)CO)n1` (configuration not stated) are -7% and 0.87.
The like results for `CC(C)CC(NC(=O)C(Cc1ccccc1)NC(=O)C1CCCN1C(=O)OCc1ccccc1)C(=O)OC(C)(C)C` (stereo not drawn) (Cbz-Pro-Phe-Leu-OtBu; configuration not given here) were, in that order, -1% and 0.11.
Take `Cn1ccc2c(NC(=O)CC[C@@H]3N=C(O)N(CCc4ccccc4)C3=O)cccc21`: the “% Inhibition” value is reported as -10% and the Z score is 1.33.
The like results for `Cc1cc(C)cc(NC(=O)Cc2nnc(-c3ccsc3)o2)c1` were, in that order, -1% and 0.1.
Turning to `CN(C(=O)c1c[nH]c(=O)c(Cl)c1)C(C1CC1)C1CC1`, the “% Inhibition” value is on record as -1% and the Z score turned out to be 0.17.
On the same counts, the results for `CCC(=O)N(CCN1CCOCC1)Cc1nccn1Cc1ccc(Cl)cc1Cl` are 5% and -0.92.
On the same counts, the results for `COc1ccc(-c2nccn3cc(C(=O)N4CCN(CC(C)C)CC4)nc23)cc1` are 29% and -3.31.
On the same counts, the results for `Cc1c(CC(=O)N[C@H](C(N)=O)C(C)C)c2c(n1Cc1ccccc1)CCCC2=O` are 5% and -0.48.
For the compound `CCC(Cc1ccc(Cl)cc1Cl)NC(=O)C(C)NC(N)=O` (configuration not stated), the “% Inhibition” value was 5% and the Z score was -0.59.
`CC1(C)CNc2ccc(S(=O)(=O)N3CCOCC3)cc21`: the “% Inhibition” value is listed as -2% and the Z score was 0.25.
The like results for `CCCc1cc(C(=O)N(CC)Cc2ccc(C)o2)n(C)n1` were, in that order, 8% and -1.17.
The like results for `CCc1ocnc1-c1nc(Cc2ccccc2OC)n[nH]1` were, in that order, -10% and 1.38.
On the same counts, the results for `CCN(CC)C(=O)C1(O)C2C=CC=CC2=NC(=O)N1c1ccccc1` (configuration not stated) are -25% and 2.95.
`C[C@H]1CN(C(=O)Cc2cncs2)CCS1(=O)=O`: the “% Inhibition” value is on record as -4% and the Z score is 0.76.
`C1CCn2c(nnc2CNC2C3CCOC3C23CCCC3)C1` (configuration not stated): the “% Inhibition” value is -2% and the Z score came to 0.25.
Take `FC(F)(F)c1ccccc1CC[C@H]1CCCNC1`: the “% Inhibition” value was -9% and the Z score worked out at 1.1.
The like results for `CS(=O)(=O)N[C@H]1[C@H](NC(=O)c2cc3sccc3[nH]2)[C@@H]2CCO[C@@H]21` were, in that order, 3% and -0.5.
On the same counts, the results for `CN(CC(=O)Nc1cnn(C)c1)Cc1cc2cc(F)ccc2[nH]1` are 0% and -0.01.
On the same counts, the results for `CC1CC1C(=O)N(C1CCCC1)C1CC1` (configuration not stated) are -14% and 1.52.
Regarding `O=C(Nc1ncccc1O)[C@H]1C[C@@H]1C(F)F`, the “% Inhibition” value was -9% and the Z score was determined as 1.76.
The like results for `CC(=O)N1CCCN(C(=O)c2cccc(-c3nc(C)cc(C)n3)c2)CC1` were, in that order, -11% and 1.06.
On the same counts, the results for `O=S1(=O)CCN(c2nc(C3CCCC3)ns2)CCC12CCC2` are -8% and 1.3.
On the same counts, the results for `Cc1ccc(OCCN2C(=O)NC3(CCCC3)C2=O)cc1` are -12% and 1.95.
In the case of `CN(Cc1cccnc1)C(=O)CCC[C@@H]1[C@H]2CCCN3CCC[C@@H](CN1Cc1cccnc1)[C@@H]23`, the “% Inhibition” value was -4% and the Z score is on record as 0.64.
The like results for `C=C(C)[C@@H]1Cc2nc(NC(=O)c3ccccc3)nc(C)c2C1` were, in that order, -14% and 1.8.
The like results for `O=C1NCC[C@@H]1CCOc1cc(F)cc(F)c1` were, in that order, -3% and 0.64.
In the case of `CC(C)c1ccc(NC(=O)N2CCN(C(C(=O)N3CCCCC3C)C3CCCC3)CC2)cc1` (configuration not stated), the “% Inhibition” value was found to be 5% and the Z score is -0.72.
Turning to `COc1ccc(NC(=O)c2ccc(C)nc2C2CCN(C(=O)c3cccc(Br)c3)CC2)cc1`, the “% Inhibition” value turned out to be 5% and the Z score is listed as -0.54.
On the same counts, the results for `CC(=O)N1Cc2ccccc2C[C@H]1C(=O)N1CCn2nc(C)nc2C1` are -14% and 2.66.
On the same counts, the results for `COc1ccc([C@](O)(CCN2CCCCC2)C2CCCCC2)cc1` are -11% and 2.06.
On the same counts, the results for `CN(CC1(O)CCCCCC1)C(=O)c1ccc(CCC(F)(F)F)cc1` are 2% and -0.21.
On to `CC(C)N(C)S(=O)(=O)N1CCC(OCc2ccc(F)cc2)CC1`, for which the “% Inhibition” value is -4% and the Z score was 0.53.
The like results for `COc1ccc2c(c1)C(N1CCCN(C(=O)C3CCCCC3)CC1)=Nc1cc(C(F)(F)F)ccc1O2` were, in that order, 11% and -1.35.
On to `CN(c1ccc(C(N)=O)cc1)S(=O)(=O)c1ccc2c(c1)CCC2`, for which the “% Inhibition” value is -5% and the Z score was 0.73.
Regarding `CC(=O)Nc1ccc(CCc2nc3cc(C(=O)N4CCC(C)CC4)ccc3[nH]2)cc1`, the “% Inhibition” value was found to be 6% and the Z score is -0.73.
On the same counts, the results for `Cc1ncc(CNC(=O)N(C)Cc2c(C)noc2C)s1` are -3% and 0.39.
For the compound `Cc1cc(-c2nnn(CC(=O)N3CCNC3=O)n2)ccc1F`, the “% Inhibition” value is -2% and the Z score is listed as 0.25.
For `CC1C(C)S(=O)(=O)CCN1Cc1cncs1` (configuration not stated), the “% Inhibition” value turned out to be 5% and the Z score was -0.7.
On the same counts, the results for `Cc1cc(S(=O)(=O)N2CCC3(CC2)NCCCN=C3NC2CCCC2)ccc1F` are -14% and 1.75.
On the same counts, the results for `CC(=O)NCCc1csc(C2CCN(C(=O)c3ccc(F)cc3)CC2)n1` are 0% and 0.
